The list shows a part of the results.
Assays:
Assay in all cases: glycan array binding signal (z-score within array); higher = stronger binding
Details in all cases: glycan notation: IUPAC condensed, linker removed
[1] = biological target: Fuc(a1-2)[GalNAc(a1-3)]Gal(b1-3)GalNAc(a1-3)[Fuc(a1-2)]Gal(b1-4)GlcNAc
Outline: (§1)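 Negative Z-scores can be read as non-binding. The Z-score is calculated within each array and then averaged across arrays of one protein sequence at different concentrations or buffers and across linkers. Arrays, 3228 in all, were curated from the Consortium for Functional Glycomics database and kept only where the protein sequence was available.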

[2] = biological target: Fuc(a1-2)[GalNAc(a1-3)]Gal(b1-3)GalNAc(b1-3)Gal(a1-4)Gal(b1-4)Glc
Outline: as §1

[3] = biological target: Fuc(a1-2)[GalNAc(a1-3)]Gal(b1-3)GlcNAc
Outline: as §1

[4] = biological target: Fuc(a1-2)[GalNAc(a1-3)]Gal(b1-3)GlcNAc(b1-2)Man(a1-3)[Fuc(a1-2)[GalNAc(a1-3)]Gal(b1-3)GlcNAc(b1-2)Man(a1-6)]Man(b1-4)GlcNAc(b1-4)GlcNAc
Outline: as §1

[5] = biological target: Fuc(a1-2)[GalNAc(a1-3)]Gal(b1-3)GlcNAc(b1-2)Man(a1-3)[Fuc(a1-2)[GalNAc(a1-3)]Gal(b1-3)GlcNAc(b1-2)Man(a1-6)]Man(b1-4)GlcNAc(b1-4)[Fuc(a1-6)]GlcNAc
Outline: as §1

[6] = biological target: Fuc(a1-2)[GalNAc(a1-3)]Gal(b1-3)GlcNAc(b1-3)GalNAc
Outline: as §1

[7] = biological target: Fuc(a1-2)[GalNAc(a1-3)]Gal(b1-3)GlcNAc(b1-6)GalNAc
Outline: as §1

[8] = biological target: Fuc(a1-2)[GalNAc(a1-3)]Gal(b1-4)Glc
Outline: as §1

[9] = biological target: Fuc(a1-2)[GalNAc(a1-3)]Gal(b1-4)GlcNAc
Outline: as §1

[10] = biological target: Fuc(a1-2)[GalNAc(a1-3)]Gal(b1-4)GlcNAc(b1-2)Man
Outline: as §1

[11] = biological target: Fuc(a1-2)[GalNAc(a1-3)]Gal(b1-4)GlcNAc(b1-2)Man(a1-3)[Fuc(a1-2)[GalNAc(a1-3)]Gal(b1-4)GlcNAc(b1-2)Man(a1-6)]Man(b1-4)GlcNAc(b1-4)GlcNAc
Outline: as §1

[12] = biological target: Fuc(a1-2)[GalNAc(a1-3)]Gal(b1-4)GlcNAc(b1-2)Man(a1-3)[Fuc(a1-2)[GalNAc(a1-3)]Gal(b1-4)GlcNAc(b1-2)Man(a1-6)]Man(b1-4)GlcNAc(b1-4)[Fuc(a1-6)]GlcNAc
Outline: as §1

[13] = biological target: Fuc(a1-2)[GalNAc(a1-3)]Gal(b1-4)GlcNAc(b1-3)Gal(b1-4)GlcNAc
Outline: as §1

[14] = biological target: Fuc(a1-2)[GalNAc(a1-3)]Gal(b1-4)GlcNAc(b1-3)Gal(b1-4)GlcNAc(b1-3)Gal(b1-4)GlcNAc
Outline: as §1

[15] = biological target: Fuc(a1-2)[GalNAc(a1-3)]Gal(b1-4)GlcNAc(b1-3)GalNAc
Outline: as §1

[16] = biological target: Fuc(a1-2)[GalNAc(a1-3)]Gal(b1-4)GlcNAc(b1-3)[Fuc(a1-2)[GalNAc(a1-3)]Gal(b1-4)GlcNAc(b1-6)]GalNAc
Outline: as §1

[17] = biological target: Fuc(a1-2)[GalNAc(a1-3)]Gal(b1-4)GlcNAc(b1-6)GalNAc
Outline: as §1

[18] = biological target: Fuc(a1-2)[GalNAc(a1-3)]Gal(b1-4)[Fuc(a1-3)]GlcNAc
Outline: as §1

[19] = biological target: Fuc(a1-2)[GalNAc(a1-3)]Gal(b1-4)[Fuc(a1-3)]GlcNAc(b1-3)GalNAc
Outline: as §1

[20] = biological target: Fuc(a1-2)[GalNAc(a1-4)]Gal(b1-4)GlcNAc
Outline: as §1

[21] = biological target: Fuc(a1-2)[GalNAc(b1-3)]Gal
Outline: as §1

Fuc(a1-3)GlcNAc = biological target: Fuc(a1-3)GlcNAc
Outline: as §1

[22] = biological target: Fuc(a1-3)[Gal(b1-4)]Glc6S
Outline: as §1

[23] = biological target: Fuc(a1-3)[Gal(b1-4)]GlcNAc
Outline: as §1

[24] = biological target: Fuc(a1-3)[Gal(b1-4)]GlcNAc(b1-2)Man
Outline: as §1

[25] = biological target: Fuc(a1-3)[Gal(b1-4)]GlcNAc(b1-2)Man(a1-3)[Fuc(a1-3)[Gal(b1-4)]GlcNAc(b1-2)Man(a1-6)]Man(b1-4)GlcNAc(b1-4)GlcNAc
Outline: as §1

[26] = biological target: Fuc(a1-3)[Gal(b1-4)]GlcNAc(b1-2)Man(a1-3)[Fuc(a1-3)[Gal(b1-4)]GlcNAc(b1-2)Man(a1-6)]Man(b1-4)GlcNAc(b1-4)[Fuc(a1-6)]GlcNAc
Outline: as §1

[27] = biological target: Fuc(a1-3)[Gal(b1-4)]GlcNAc(b1-3)Gal(b1-3)[Fuc(a1-4)]GlcNAc
Outline: as §1

[28] = biological target: Fuc(a1-3)[Gal(b1-4)]GlcNAc(b1-3)Gal(b1-4)[Fuc(a1-3)]GlcNAc
Outline: as §1

[29] = biological target: Fuc(a1-3)[Gal(b1-4)]GlcNAc(b1-3)Gal(b1-4)[Fuc(a1-3)]GlcNAc(b1-3)Gal(b1-4)[Fuc(a1-3)]GlcNAc
Outline: as §1

[30] = biological target: Fuc(a1-3)[Gal(b1-4)]GlcNAc(b1-3)GalNAc
Outline: as §1

[31] = biological target: Fuc(a1-3)[Gal(b1-4)]GlcNAc(b1-4)Gal(b1-4)[Fuc(a1-3)]GlcNAc
Outline: as §1

[32] = biological target: Fuc(a1-3)[Gal(b1-4)]GlcNAc(b1-4)Gal(b1-4)[Fuc(a1-3)]GlcNAc(b1-4)Gal(b1-4)[Fuc(a1-3)]GlcNAc
Outline: as §1

[33] = biological target: Fuc(a1-3)[Gal(b1-4)]GlcNAc(b1-6)GalNAc
Outline: as §1

[34] = biological target: Fuc(a1-3)[Gal(b1-4)]GlcNAc(b1-6)[Gal(b1-3)GlcNAc(b1-3)]Gal(b1-4)Glc
Outline: as §1

[35] = biological target: Fuc(a1-3)[Gal(b1-4)]GlcNAc6S
Outline: as §1

[36] = biological target: Fuc(a1-3)[Gal3S(b1-4)]Glc
Outline: as §1

B1: OVGAL11 (Ovis aries), AAF64320 (protein)
chain: MDSLPNPYLQSVSLTVCYMVKIKANLLSAFGKNPELQVDFGTGTGQGGNIPFRFWYCDGMVVMNTFTDGSWQKEEKVLTDAFVPGQPFELQFLVLEKEYQVFVKNKPICQFAHRLPLQSVKMLDVRGDIVLTSVDTL
Question: For B1, which “glycan array binding signal (z-score)” value [1] is on record?
Answer: Its value is -0.097.

Question: And the “glycan array binding signal (z-score)” value [2]?
Answer: Its value is -0.086.

Question: And the “glycan array binding signal (z-score)” value [3]?
Answer: The value was -0.073.

Question: And the “glycan array binding signal (z-score)” value [4]?
Answer: The value was -0.071.

Question: What about the “glycan array binding signal (z-score)” value [5] of the same binder?
Answer: Its value is -0.064.

Question: And the “glycan array binding signal (z-score)” value [6]?
Answer: The value was -0.082.

Question: What about the “glycan array binding signal (z-score)” value [7] of the same binder?
Answer: The value was -0.072.

Question: What about the “glycan array binding signal (z-score)” value [8] of the same binder?
Answer: The value was 0.204.

Question: And the “glycan array binding signal (z-score)” value [9]?
Answer: The value was 0.444.

Question: And the “glycan array binding signal (z-score)” value [10]?
Answer: The value was -0.118.

Question: And the “glycan array binding signal (z-score)” value [11]?
Answer: Its value is -0.069.

Question: What about the “glycan array binding signal (z-score)” value [12] of the same binder?
Answer: Its value is -0.088.

Question: What about the “glycan array binding signal (z-score)” value [13] of the same binder?
Answer: Its value is -0.098.

Question: What about the “glycan array binding signal (z-score)” value [14] of the same binder?
Answer: Its value is -0.076.

Question: What about the “glycan array binding signal (z-score)” value [15] of the same binder?
Answer: Its value is -0.044.

Question: And the “glycan array binding signal (z-score)” value [16]?
Answer: The value was -0.1.

Question: What about the “glycan array binding signal (z-score)” value [17] of the same binder?
Answer: The value was -0.109.

Question: What about the “glycan array binding signal (z-score)” value [18] of the same binder?
Answer: The value was 0.407.

Question: What about the “glycan array binding signal (z-score)” value [19] of the same binder?
Answer: Its value is -0.067.

Question: What about the “glycan array binding signal (z-score)” value [20] of the same binder?
Answer: Its value is 0.101.

Question: And the “glycan array binding signal (z-score)” value [21]?
Answer: Its value is -0.029.

Question: And the “glycan array binding signal (z-score)” value (Fuc(a1-3)GlcNAc)?
Answer: The value was 4.51.

Question: What about the “glycan array binding signal (z-score)” value [22] of the same binder?
Answer: The value was -0.102.

Question: What about the “glycan array binding signal (z-score)” value [23] of the same binder?
Answer: Its value is -0.023.

Question: And the “glycan array binding signal (z-score)” value [24]?
Answer: The value was -0.096.

Question: And the “glycan array binding signal (z-score)” value [25]?
Answer: The value was -0.105.

Question: What about the “glycan array binding signal (z-score)” value [26] of the same binder?
Answer: The value was -0.028.

Question: What about the “glycan array binding signal (z-score)” value [27] of the same binder?
Answer: Its value is -0.104.

Question: What about the “glycan array binding signal (z-score)” value [28] of the same binder?
Answer: Its value is -0.045.

Question: What about the “glycan array binding signal (z-score)” value [29] of the same binder?
Answer: Its value is -0.112.

Question: What about the “glycan array binding signal (z-score)” value [30] of the same binder?
Answer: Its value is -0.106.

Question: What about the “glycan array binding signal (z-score)” value [31] of the same binder?
Answer: The value was -0.16.

Question: And the “glycan array binding signal (z-score)” value [32]?
Answer: Its value is -0.141.

Question: What about the “glycan array binding signal (z-score)” value [33] of the same binder?
Answer: Its value is 0.122.

Question: And the “glycan array binding signal (z-score)” value [34]?
Answer: The value was -0.11.

Question: What about the “glycan array binding signal (z-score)” value [35] of the same binder?
Answer: Its value is -0.049.

Question: And the “glycan array binding signal (z-score)” value [36]?
Answer: Its value is -0.074.
